Entries with a single value are a further part of the results.
Experiment: Water loss as a function of temperature by TG/DTA (loss on drying, thermal transitions)
Assay type: physicochemical
Details: DTA signals, temperature at which the water is lost
From the text: (ii) Thermogravimetric/Differential Thermal Analysis (TG/DTA) […]
The data listed below show the total water loss (LOD by thermogravimetry (TG)) and thermal transitions (DTA signals) show the temperature at which the water is lost.

For O=C([O-])C[C@H]1CC[C@H](c2ccc(-c3ccc(Nc4ccc(C(F)(F)F)nc4)cn3)cc2)CC1.[Na+] [Modification I, sodium salt of (4-{4-[5-(6-trifluoromethyl-pyridin-3-ylamino)-pyridin-2-yl]-phenyl}-cyclohexyl)-acetic acid], the “LOD (thermal transitions)” value (listed as I, first DTA thermal transition) was 52 °C and the “LOD (thermal transitions)” value (listed as I, second DTA thermal transition) was 90 °C.
For O=C([O-])C[C@H]1CC[C@H](c2ccc(-c3ccc(Nc4ccc(C(F)(F)F)nc4)cn3)cc2)CC1.[Na+] [Modification B, sodium salt of (4-{4-[5-(6-trifluoromethyl-pyridin-3-ylamino)-pyridin-2-yl]-phenyl}-cyclohexyl)-acetic acid], the “LOD (thermal transitions)” value (listed as B, first DTA thermal transition) was 64.7 °C and the “LOD (thermal transitions)” value (listed as B, second DTA thermal transition) was 82.6 °C.
With O=C([O-])C[C@H]1CC[C@H](c2ccc(-c3ccc(Nc4ccc(C(F)(F)F)nc4)cn3)cc2)CC1.[Na+] [Modification E, sodium salt of (4-{4-[5-(6-trifluoromethyl-pyridin-3-ylamino)-pyridin-2-yl]-phenyl}-cyclohexyl)-acetic acid] the “LOD (thermal transitions)” value (first DTA thermal transition (water loss)) was 52.0 °C and the “LOD (thermal transitions)” value (second DTA thermal transition (water loss)) was 69.6 °C.
With O=C([O-])C[C@H]1CC[C@H](c2ccc(-c3ccc(Nc4ccc(C(F)(F)F)nc4)cn3)cc2)CC1.[Na+] [Modification A, sodium salt of (4-{4-[5-(6-trifluoromethyl-pyridin-3-ylamino)-pyridin-2-yl]-phenyl}-cyclohexyl)-acetic acid] the “LOD (thermal transitions)” value (first endotherm) was 41 °C and the “LOD (thermal transitions)” value (second endotherm) was 67 °C.

From US8829194B2, “Crystalline forms of the sodium salt of (4-{4-[5-(6-trifluoromethyl-pyridin-3-ylamino)-pyridin-2-yl]-phenyl}-cyclohexyl)-acetic acid” (Novartis AG, priority 2010, dated 2014)
